Measured values as given in PubChem BioAssay AID1460 (National Center for Advancing Translational Sciences (NCATS), 2008).
Hit rate of the full screen: of about 270,000 compounds, about 5,800 (2.1%) were called active. Inconclusive means that the source gave no clear call. Such entries were picked first, then a sample of the others. The call rests on the fitted dose curve; in most records, active means well fitted inhibition curve with a large enough effect; inconclusive means small, poorly fitted or top-dose-only effect; inactive means flat fitted curve, though single readings scatter. Potencies beside an inconclusive call are fits to weak or partial responses and may not hold up.

The compounds below were run against Microtubule-associated protein tau (Homo sapiens) (UniProt P10636) (assay: qHTS for Inhibitors of Tau Fibril Formation, Thioflavin T Binding). Conditions: recombinant tau K18 P301L, heparin-induced fibrillization, ThT fluorescence; series mostly up to 57.4 µM.
Sequence of UniProt P10636 (P10636 whole entry, looked up): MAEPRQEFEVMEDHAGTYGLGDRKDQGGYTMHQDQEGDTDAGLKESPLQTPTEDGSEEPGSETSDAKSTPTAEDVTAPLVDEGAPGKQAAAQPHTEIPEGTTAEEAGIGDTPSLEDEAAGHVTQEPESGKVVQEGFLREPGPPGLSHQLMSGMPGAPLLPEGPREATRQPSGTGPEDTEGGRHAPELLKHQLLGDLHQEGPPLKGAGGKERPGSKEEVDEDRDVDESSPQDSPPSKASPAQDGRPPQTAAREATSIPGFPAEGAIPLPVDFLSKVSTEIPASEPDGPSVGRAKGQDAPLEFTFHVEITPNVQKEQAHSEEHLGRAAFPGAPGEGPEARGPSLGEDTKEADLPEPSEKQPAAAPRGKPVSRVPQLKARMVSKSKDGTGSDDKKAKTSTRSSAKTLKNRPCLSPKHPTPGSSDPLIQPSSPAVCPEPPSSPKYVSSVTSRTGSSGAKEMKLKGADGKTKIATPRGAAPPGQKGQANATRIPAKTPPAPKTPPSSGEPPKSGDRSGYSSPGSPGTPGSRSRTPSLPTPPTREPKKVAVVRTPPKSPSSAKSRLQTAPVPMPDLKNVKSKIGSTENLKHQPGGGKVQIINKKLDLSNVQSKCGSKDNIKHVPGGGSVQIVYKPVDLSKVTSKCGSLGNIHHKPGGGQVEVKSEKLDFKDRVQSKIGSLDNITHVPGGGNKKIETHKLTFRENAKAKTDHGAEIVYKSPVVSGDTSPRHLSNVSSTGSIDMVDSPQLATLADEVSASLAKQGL
Procedure, shortened: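 Using a mix of unlabeled (15 uM) and Alexa 594-labeled (0.24 uM) tau K18 P301L, heparin-triggered fibrillization over 6 hr at 37 C was scored by ThT fluorescence.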
Further: nearly all actives have a fitted effect of over 55% in size.
Potency means the concentration at half of the fitted maximal effect; tags describe the fitted curve by direction and shape.

| Compound | Potency |
| --- | --- |
| CCCCn1c(SC(C)C(N)=O)nc2cc(C(=O)OC)ccc2c1=O (stereo not given) | inactive |
| CCOC(=O)c1c(NC(=O)CSc2ncn[nH]2)sc(C)c1C | inactive |
| CC1=C(c2ccc(C)c(C)c2)S(=O)(=O)N=C1N1CCC(C(=O)NCc2ccc(N(C)C)cc2)CC1 | inconclusive: 1.12 µM [inhibitor, partial curve, poor fit] |
| COc1cc(Nc2ccc(C(=O)O)cc2[N+](=O)[O-])cc(OC)c1 | inconclusive: 22.4 µM [inhibitor, partial curve] |
| CCCCC(=O)NC(=S)Nc1nnn(CCC)n1 | inactive |
| O=C1/C(=C\c2ccc([N+](=O)[O-])cc2)CCc2ccccc21 | inconclusive: 6.31 µM [inhibitor, partial curve] |
| COc1ccc(C(=O)NC(=S)NCC2CCCO2)cc1 (stereo not given) | inactive |
| CCN(CC)c1ccc(N=Nc2nn(C)c(C)c2[N+](=O)[O-])cc1 | active: 15.8 µM |
| Cn1c2c(c(=O)n(C)c1=O)C(c1ccc(F)cc1)C(C#N)=C(N)O2 (stereo not given) | inconclusive: 12.6 µM [inhibitor, partial curve] |
| Cn1c(SCC(=O)c2ccc(O)c(O)c2)nnc1-c1cccs1 | inconclusive: 15.8 µM [inhibitor, partial curve] |
| COc1ccc(C(=O)CCC(=O)N2CCN(c3ccc(N4CCOCC4)nn3)CC2)cc1 | inconclusive: 11.2 µM [inhibitor, partial curve] |
| COc1cccc([C@@H]2Oc3ccc(Br)cc3C(=O)[C@H]2OC(=O)NCCc2ccc(OC)c(OC)c2)c1 | inconclusive: 15.8 µM [inhibitor, partial curve] |
| O=C(Nc1ccc(-c2csc(-c3ccccc3)n2)cc1)c1ccccc1Cl | inactive |
| COC(=O)CSc1ccsc1C(=O)O | inactive |
| CC1N(C)c2cc(NC(=O)c3ccco3)ccc2C1(C)C (stereo not given) | inconclusive: 22.4 µM [inhibitor, partial curve] |
| CC(=O)c1cccc(N=Nc2c(-c3ccccc3)[nH]n(-c3ccccc3)c2=O)c1 | inconclusive: 22.4 µM [inhibitor, partial curve] |
| CCOc1ccc(NC(=S)N(Cc2ccc(N(C)C)cc2)Cc2ccco2)cc1 | inconclusive: 25.1 µM [inhibitor, single point] |
| O=C(c1cccs1)N1CCCc2cc(NS(=O)(=O)c3cc(F)ccc3F)ccc21 | inactive |
| CCOC(=O)c1ccc(-n2c(O)c(/C=N/NC(=O)C3COc4ccccc4O3)c3ccccc3c2=O)cc1 (stereo not given) | inconclusive: 22.4 µM [inhibitor, partial curve] |
| Cc1cc(N2CCN(C)CC2)nc2ccc(NC(=S)N3CCN(c4cccc(Cl)c4)CC3)cc12 | inconclusive: 12.6 µM [inhibitor, partial curve, poor fit] |
| CN(C)c1ccc(/C=N/n2c(-c3cccnc3)n[nH]c2=S)cc1 | inactive |
| O=C(O)c1ccc(COc2c(F)c(F)c(F)c(F)c2F)o1 | inconclusive: 31.6 µM [inhibitor, single point] |
| CCn1c2ccccc2c2nnc(SCC(=O)N3CC(C)OC(C)C3)nc21 (stereo not given) | inconclusive: 15.8 µM [inhibitor, partial curve] |
| CSc1nc(O)c(/C=C2\C=Nc3ccccc32)[nH]1 | inactive |

| Compound | Potency |
| --- | --- |
| CCN(CC)c1ccc(C(=O)n2cnc3ccccc32)cc1 | inconclusive: 15.8 µM [inhibitor, partial curve] |
| Cc1c(Cl)cccc1NC(=S)NCCC(C)C | inactive |
| COc1ccc(-n2cccc2/C=C2\C(=N)N3N=C(C(C)C)SC3=NC2=O)cc1 | inconclusive: 15.8 µM [inhibitor, partial curve] |
| COc1n[nH]c(C(=O)Nc2nc3ccccc3s2)c1[N+](=O)[O-] | inconclusive: 28.2 µM [inhibitor, partial curve] |
| CCN(C(=O)c1ccc2c(Cl)c3c(nc2c1)CCC3)c1cccc(C)c1 | inconclusive: 22.4 µM [inhibitor, single point] |
| Cc1cccc(C(=O)Nc2ccc3nc(SCC(=O)N4CCCC4)sc3c2)c1 | inactive |
| CC(=O)Nc1ccc2nc(NC(=O)COc3ccccc3)sc2c1 | inconclusive: 3.16 µM [inhibitor, partial curve] |
| Cc1ccc(NC(=O)c2nc(S(=O)(=O)Cc3ccc(F)cc3)ncc2Cl)cc1C | inconclusive: 10 µM [inhibitor, partial curve] |
| Cc1ccc2oc(=O)c3cnn(CC(=O)N4CCN(c5cccc(Cl)c5)CC4)c3c2c1 | inconclusive: 0.447 µM [inhibitor, full curve] |
| Clc1cccc(COn2c(-c3ccc(Cl)cc3Cl)nc3ncccc32)c1 | inconclusive: 39.8 µM [inhibitor, partial curve] |
| C/C(=N\NC(=O)c1cccnc1)c1ccc(OC2OCCOC2Oc2ccc(/C(C)=N/NC(=O)c3cccnc3)cc2)cc1 (stereo not given) | inconclusive: 0.0251 µM [inhibitor, full curve, poor fit] |
| Cc1ccc(OCC(=O)N/N=C/c2cccn2C)cc1C | inconclusive: 17.8 µM [inhibitor, partial curve] |
| COc1ccc(Cn2c(-c3ccc(OC)cc3)nc3ccccc32)cc1 | inactive |
| NC(=O)c1c(NC(=O)CCCn2cnc([N+](=O)[O-])n2)sc2c1CCCC2 | inconclusive: 39.8 µM [inhibitor, single point] |
| O=C(CCN1C(=O)/C(=C/c2cccs2)SC1=S)NNC(=O)c1cccc(O)c1 | inconclusive: 1.58 µM [inhibitor, partial curve, poor fit] |
| CCOC(=O)c1sc2nccc(N(C)C)c2c1N=CNOCc1ccccc1 | inconclusive: 20 µM [inhibitor, partial curve] |
| COc1ccc(-c2nn3c(-c4ccccc4)nnc3c3ccccc23)cc1 | inconclusive: 31.6 µM [inhibitor, single point] |
| CCOC(=O)c1c(NC(=O)CN2CCCc3ccccc32)sc(C)c1CC | inconclusive: 17.8 µM [inhibitor, partial curve] |
| COc1ccc(CNC(=O)CN2C(=O)COc3ccccc32)c(OC)c1 | inactive |
| Cc1ccc2nc(NC(=O)CSc3cc(C)[nH]c(=O)n3)sc2c1 | inconclusive: 0.398 µM [inhibitor, full curve] |
| Cc1ccc(C2=NC(C)(C)N=C2SCC(=O)Nc2ccc(Cl)cc2)cc1 | inconclusive: 14.1 µM [inhibitor, partial curve] |
| COc1ccccc1Nc1ccc(C(=O)O)cc1[N+](=O)[O-] | inconclusive: 11.2 µM [inhibitor, partial curve] |
| CC(C)(C)OC(=O)N1CCC[C@H]1c1nnc(SCc2ccccc2Cl)o1 | inactive |
| CCCn1c(=O)[nH]c(=O)c2c1nc(-c1ccc(OC(F)F)c(OC)c1)n2CCOC | inconclusive: 28.2 µM [inhibitor, partial curve, poor fit] |

| Compound | Potency |
| --- | --- |
| Cc1nnc(SC(=O)N2c3ccccc3Sc3ccccc32)s1 | inconclusive: 20 µM [inhibitor, partial curve] |
| Cc1ccc(NC(=O)CCCc2nc3ccccc3s2)c(O)c1 | inconclusive: 7.08 µM [inhibitor, partial curve] |
| COc1ccc(Cc2c(O)nc(SC)n(C(C)=O)c2=O)cc1 | inconclusive: 44.7 µM [inhibitor, partial curve] |
| COc1ccc(/C=N/NC(=O)c2cccnc2)cc1CN1CCCc2ccccc21 | inconclusive: 17.8 µM [inhibitor, partial curve] |
| Cc1ccc(NC(=O)Cn2c(=O)n(Cc3ccc(F)cc3)c(=O)c3cccnc32)cc1C | inactive |
| O=C(Cc1csc(N2CCOCC2)n1)N/N=C/c1ccc(O)c(O)c1O | active: 15.8 µM |
| CC1CCc2nc(NC(=O)C3COc4ccccc4O3)sc2C1 (stereo not given) | inconclusive: 2 µM [inhibitor, full curve] |
| COc1ccc(OC)c(C2=Nn3c(nnc3-c3cccc(OC(C)C)c3)SC2)c1 | inconclusive: 4.47 µM [inhibitor, single point] |
| CC(C)(O)C#Cc1ccc(CN2CCN(CCc3ccccc3)C(CCO)C2)s1 (stereo not given) | inactive |
| COC(=O)c1c(NC(=O)CCCOc2ccc(C)cc2)sc2c1CCCC2 | inconclusive: 25.1 µM [inhibitor, partial curve, poor fit] |
| CCn1c(C(=O)Nc2ccccc2C(=O)OC)cc2sc(Cl)cc21 | inactive |
| COc1ccc(-n2nc3c(=O)[nH][nH]c3cc2=O)cc1 | inconclusive: 25.1 µM [inhibitor, partial curve] |
| CC1CCc2c(sc3nc(SCC(=O)NCc4ccco4)nc(N)c23)C1 (stereo not given) | inconclusive: 35.5 µM [inhibitor, partial curve] |
| CNC(=O)NC(=O)COC(=O)CCCSc1nc2ccccc2s1 | inactive |
| N#CC(C#N)=NNc1ccc(S(=O)(=O)N2CCCCC2)cc1 | active: 15.8 µM |
| S=c1[nH]nc(CSc2nc3ccccc3s2)n1Cc1ccccc1 | inactive |
| CCOC(=O)c1cc(-c2ccccc2)sc1NC(=O)CC | inactive |
| CCCOc1ccc(OC(=O)c2ccc(-c3ccc(CCC)cn3)cc2)cc1 | inconclusive: 0.398 µM [inhibitor, full curve] |
| COc1ccc2oc(=O)c(-c3cn4ccc(C)cc4n3)cc2c1 | inactive |
| S=c1[nH]c(-c2ccccc2)cn1/N=C/c1ccncc1 | active: 11.2 µM |
| CC(=O)N[C@@H](CSC/C=C(\C)CC/C=C(\C)CCC=C(C)C)C(=O)O | inconclusive: 39.8 µM [inhibitor, single point] |
| O=C(O)CC1=C(Nc2ccccc2)C(=O)N(c2ccccc2)C1c1ccc(F)cc1 (stereo not given) | inconclusive: 17.8 µM [inhibitor, single point] |
